Experimental data taken from patent US11207320B2, “Compositions and methods for cancer expressing PDE3A or SLFN12” (The Broad Institute, Inc., priority 2015, dated 2021).
The source gives many values for each of these; only a part stands here.

Test system: 766 cancer cell lines
Assay: Large-scale cell-line viability measurements (766 cancer cell lines, 72 h, AUC)
Assay type: cell-based, human
Settings: 72 hours
Protocol: Cell lines were treated for 72 hours with concentrations ranging from 66.4 μM-2 nM in 2-fold step dilutions.
To characterize cellular sensitivity to DNMDP further, 766 genomically characterized cancer cell lines were screened for DMNDP sensitivity at concentrations ranging from 66.4 μM to 2 nM in 2-fold dilution steps for 72 hours. From these cell lines, 22 cell lines were categorized as sensitive with a robust Z-score lower than −4, which represented multiple lineages including multiple melanoma cell lines, amongst others (Table 1).
The sensitivity of […] cancer cell lines (CCLs) was measured drawn from 23 different lineages to DNMDP. Each cell line was plated in its preferred media in white opaque 1536-plates at a density of 500 cells/well. After incubating overnight, DNMDP was added by acoustic transfer at 16 concentrations ranging from 66.4 μM-2 nM in 2-fold steps in duplicate (Labcyte Echo 555, Labcyte Inc., Sunnyvale, Calif.). After 72 hours treatment, cellular ATP levels were measured as a surrogate for viability (CELLTITERGLO®, Promega Corporation, Madison, Wis.) according to manufacturer's protocols using a ViewLux Microplate Imager (PerkinElmer, Waltham, Mass.) and normalized to background (media-only) and vehicle (DMSO)-treated control wells.
Concentration response curves were fit using nonlinear fits to 2- or 3-parameter sigmoid functions through all 16 concentrations with the low-concentration asymptote set to the DMSO-normalized value, and an optimal 8-point dose curve spanning the range of compound-sensitivity was identified. The area under the 8-point dose curve (AUC) was computed by numeric integration as a metric for sensitivity for further analysis. Similar sensitivity measurements have been obtained for a collection of 480 other compounds, enabling analyses that identify cell lines responding uniquely to DNMDP (see Broad Institute Cancer Therapeutics Response Portal, a dataset to identify comprehensively relationships between genetic and lineage features of human cancer cell lines and small-molecule sensitivities for complete list of compounds).

[1] = HEL (HAEMATOPOIETIC AND LYMPHOID TISSUE)
[2] = HS611T (HAEMATOPOIETIC AND LYMPHOID TISSUE)
[3] = JJN3 (HAEMATOPOIETIC AND LYMPHOID TISSUE)
[4] = JURKAT (HAEMATOPOIETIC AND LYMPHOID TISSUE)
[5] = KARPAS299 (HAEMATOPOIETIC AND LYMPHOID TISSUE)
[6] = KASUMI2 (HAEMATOPOIETIC AND LYMPHOID TISSUE)
[7] = KHM1B (HAEMATOPOIETIC AND LYMPHOID TISSUE)

With `CCN(CC)c1ccc(C2=NNC(=O)CC2C)cc1[N+](=O)[O-]` (centres unmarked) [DNMDP, 6-(4-(diethylamino)-3-nitrophenyl)-5-methyl-4,5-dihydropyridazin-3(2H)-one] the “Robust Z-score” value (HCC15 (LUNG)) was −0.2609, the “DNMDP AUC” value (HCC38 (BREAST)) was 6.3361 and the “Robust Z-score” value (HCC38 (BREAST)) was −0.3134. For the same compound, the “DNMDP AUC” value (HCC44 (LUNG)) was 6.4794, the “Robust Z-score” value (HCC44 (LUNG)) was −0.163 and the “DNMDP AUC” value (HCC1143 (BREAST)) was 6.3611. The “Robust Z-score” value (HCC1143 (BREAST)) was −0.2871, the “DNMDP AUC” value (HCC4006 (LUNG)) was 6.2335 and the “Robust Z-score” value (HCC4006 (LUNG)) was −0.4211. The “DNMDP AUC” value (HCT8 (LARGE INTESTINE)) was 6.3733, the “Robust Z-score” value (HCT8 (LARGE INTESTINE)) was −0.2743 and the “DNMDP AUC” value (HCT15 (LARGE INTESTINE)) was 6.4918. For the same compound, the “Robust Z-score” value (HCT15 (LARGE INTESTINE)) was −0.1499, the “DNMDP AUC” value [1] was 0.5796 and the “Robust Z-score” value [1] was −6.356. The “DNMDP AUC” value (HLF (LIVER)) was 6.5042, the “Robust Z-score” value (HLF (LIVER)) was −0.1369 and the “DNMDP AUC” value (HMCB (SKIN)) was 1.9762. The “Robust Z-score” value (HMCB (SKIN)) was −4.89, the “DNMDP AUC” value (HOS (BONE)) was 6.5069 and the “Robust Z-score” value (HOS (BONE)) was −0.1341. The “DNMDP AUC” value (HS294T (SKIN)) was 6.5258, the “Robust Z-score” value (HS294T (SKIN)) was −0.1143 and the “DNMDP AUC” value (HS578T (BREAST)) was 2.8012. For the same compound, the “Robust Z-score” value (HS578T (BREAST)) was −4.024, the “DNMDP AUC” value [2] was 6.4224 and the “Robust Z-score” value [2] was −0.2228. The “DNMDP AUC” value (HS729 (SOFT TISSUE)) was 4.6518, the “Robust Z-score” value (HS729 (SOFT TISSUE)) was −2.081 and the “DNMDP AUC” value (HS766T (PANCREAS)) was 6.3727. The “Robust Z-score” value (HS766T (PANCREAS)) was −0.275, the “DNMDP AUC” value (HS839T (SKIN)) was 5.5232 and the “Robust Z-score” value (HS839T (SKIN)) was −1.167. The “DNMDP AUC” value (HS852T (SKIN)) was 4.7511, the “Robust Z-score” value (HS852T (SKIN)) was −1.977 and the “DNMDP AUC” value (HS936T (SKIN)) was 6.385. For the same compound, the “Robust Z-score” value (HS936T (SKIN)) was −0.262, the “DNMDP AUC” value (HS940T (SKIN)) was 5.1573 and the “Robust Z-score” value (HS940T (SKIN)) was −1.551. The “DNMDP AUC” value (HT1197 (URINARY TRACT)) was 3.0929, the “Robust Z-score” value (HT1197 (URINARY TRACT)) was −3.718 and the “DNMDP AUC” value (HUH28 (BILIARY TRACT)) was 6.5145. For the same compound, the “Robust Z-score” value (HUH28 (BILIARY TRACT)) was −0.1261, the “DNMDP AUC” value (IGR1 (SKIN)) was 4.8613 and the “Robust Z-score” value (IGR1 (SKIN)) was −1.861. For the same compound, the “DNMDP AUC” value (IGR37 (SKIN)) was 0.4115, the “Robust Z-score” value (IGR37 (SKIN)) was −6.532 and the “DNMDP AUC” value (IM95 (STOMACH)) was 6.4877. The “Robust Z-score” value (IM95 (STOMACH)) was −0.1542, the “DNMDP AUC” value (ISTMES1 (PLEURA)) was 6.2389 and the “Robust Z-score” value (ISTMES1 (PLEURA)) was −0.4154. For the same compound, the “DNMDP AUC” value (J82 (URINARY TRACT)) was 6.3718, the “Robust Z-score” value (J82 (URINARY TRACT)) was −0.2759 and the “DNMDP AUC” value (JHH5 (LIVER)) was 6.4703. The “Robust Z-score” value (JHH5 (LIVER)) was −0.1725, the “DNMDP AUC” value (JHOM1 (OVARY)) was 2.7006 and the “Robust Z-score” value (JHOM1 (OVARY)) was −4.129. For the same compound, the “DNMDP AUC” value (JHOS2 (OVARY)) was 4.8254, the “Robust Z-score” value (JHOS2 (OVARY)) was −1.899 and the “DNMDP AUC” value (JHUEM1 (ENDOMETRIUM)) was 0.5347. The “Robust Z-score” value (JHUEM1 (ENDOMETRIUM)) was −6.403, the “DNMDP AUC” value (JHUEM3 (ENDOMETRIUM)) was 4.93 and the “Robust Z-score” value (JHUEM3 (ENDOMETRIUM)) was −1.789. For the same compound, the “DNMDP AUC” value (JIMT1 (BREAST)) was 6.3087, the “Robust Z-score” value (JIMT1 (BREAST)) was −0.3421 and the “DNMDP AUC” value [3] was 6.4585. For the same compound, the “Robust Z-score” value [3] was −0.1849, the “DNMDP AUC” value (JMSU1 (URINARY TRACT)) was 6.3317 and the “Robust Z-score” value (JMSU1 (URINARY TRACT)) was −0.318. The “DNMDP AUC” value [4] was 6.4524, the “Robust Z-score” value [4] was −0.1913 and the “DNMDP AUC” value (K029AX (SKIN)) was 2.9362. For the same compound, the “Robust Z-score” value (K029AX (SKIN)) was −3.882, the “DNMDP AUC” value (KALS1 (CENTRAL NERVOUS SYSTEM)) was 6.3098 and the “Robust Z-score” value (KALS1 (CENTRAL NERVOUS SYSTEM)) was −0.341. The “DNMDP AUC” value [5] was 6.4827, the “Robust Z-score” value [5] was −0.1595 and the “DNMDP AUC” value [6] was 6.2904. The “Robust Z-score” value [6] was −0.3613, the “DNMDP AUC” value (KATOIII (STOMACH)) was 6.3642 and the “Robust Z-score” value (KATOIII (STOMACH)) was −0.2839. For the same compound, the “DNMDP AUC” value [7] was 6.2859 and the “Robust Z-score” value [7] was −0.3661.
